# Assay results published in the supplement of paper PMC10126150.
# Sequences with one replicate were seen in a single cluster, so their values are uncertain.
# Tested on: ATP
# Test: switch fluorescence ratio, 500 uM ATP over buffer (Cy3 cluster intensity, sum of 5 cycles each) (fold (ratio)); higher = stronger signal-on switching upon ATP binding; sequences stand for … in TCGTCGGCAGCGTCAGATGTGTATAAGAGACAGTTTTTTTTTTTTTTTTTTTTTTTTT…TC
# Conditions: aptamer strand: ATP DNA aptamer (quencher-CACCTGGGGGAGTATTGCGGAGGAAGG + anchor), 100 nM annealed; ATP concentration: 500 uM; one replicate
# In short: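 Values give the fluorescence ratio for each switch-domain sequence, averaged from per-cluster ratios of summed target-cycle to summed buffer-cycle Cy3 intensity. The Cy3-labelled switching-strand clusters sat on a modified Illumina MiSeq flow-cell, were annealed to 100 nM quencher-labelled ATP aptamer, and were imaged in selection buffer, then after 15 min with 500 uM ATP at 22 °C. Five cycles ran with NaOH stripping and re-annealing between them, and clusters outside 100-1000 RFU were excluded.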
# 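Further: ATP exposure 15 min at 22 °C before imaging.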
row,Sequence,switch fluorescence ratio
1,CTTGAGTGGA,0.992
2,CTTGCACGCT,0.978
3,CTTGCATATA,1.22
4,CTTGCGTGAT,1.05
5,CTTGCTGGTA,0.979
6,CTTGGGCCCG,1.02
7,CTTGGGCTGT,1
8,CTTGGTAAAC,1.08
9,CTTGGTACT,1.07
10,CTTGGTCACA,1.03
11,CTTGGTGCGT,0.975
12,CTTGGTGGTC,1
13,CTTGTAAACT,0.966
14,CTTGTATATA,0.989
15,CTTGTCCAC,0.98
16,CTTGTCCTAT,0.983
17,CTTGTCGGGC,1.02
18,CTTGTGAGCA,1.06
19,CTTGTGGAG,1
20,CTTGTTTCGG,1.03
21,CTTTAACGCC,1.05
22,CTTTAAGATC,1.07
23,CTTTAATAAT,1.03
24,CTTTAGGGGA,1.01
25,CTTTAGGTAC,1.94
26,CTTTCATGCC,1.02

row,Sequence,switch fluorescence ratio
1,CTTTCCCCT,1.02
2,CTTTCTCCGG,1.17
3,CTTTGACGTT,0.969
4,CTTTGAGGAC,1.03
5,CTTTGCAGCG,0.953
6,CTTTGCTTGA,1.08
7,CTTTGGAGAT,0.976
8,CTTTGGATAC,1.48
9,CTTTGGCTCC,1.01
10,CTTTGTGGAG,0.954
11,CTTTGTTTGT,1.02
12,CTTTTAGTAC,0.989
13,CTTTTAGTCT,1.01
14,CTTTTCCTGT,1.14
15,CTTTTCGGCG,0.99
16,CTTTTGAGG,1.03
17,CTTTTTAATT,0.95
18,CTTTTTCACC,1.05
19,CTTTTTGAAT,1.03
20,CTTTTTTAAC,0.997
21,CTTTTTTGCA,0.965
22,CTTTTTTTGA,0.985
23,GAAAAAAACT,1.02
24,GAAAAACGGC,1.13
25,GAAAAAGACC,1.07
26,GAAAACATAT,1

row,Sequence,switch fluorescence ratio
1,GAAAAGAATA,1.03
2,GAAAAGCCCG,1.06
3,GAAAAGGCGT,1.03
4,GAAAATAGTT,0.966
5,GAAAATCCCA,0.99
6,GAAAATGGTA,0.979
7,GAAAATGTGG,0.988
8,GAAAATTGCG,1
9,GAAAATTGTT,0.993
10,GAAACACACC,1.27
11,GAAACCACGT,1.1
12,GAAACTCGGT,0.992
13,GAAACTCTG,1.02
14,GAAACTTGAG,1.11
15,GAAAGAAGTG,1.03
16,GAAAGACAGT,0.931
17,GAAAGATGAA,0.943
18,GAAAGTAGCG,1.03
19,GAAATCACAT,1.04
20,GAAATCAGAG,0.974
21,GAAATGTGAT,0.992
22,GAAATTAGGG,1
23,GAAATTGCTT,0.957
24,GAAATTGGCG,1.04
25,GAACAAGTAT,0.985
26,GAACACATAA,1.07

row,Sequence,switch fluorescence ratio
1,GAACAGCGGG,0.965
2,GAACATACAT,1.27
3,GAACCCTCCT,1.41
4,GAACCGCCGG,1.02
5,GAACGAATTA,1.02
6,GAACGACGAG,0.977
7,GAACGAGCCC,1.09
8,GAACGCCGAC,1.51
9,GAACGCGAGG,2
10,GAACGGAAAC,2.92
11,GAACGGCAAG,1.08
12,GAACGGGTAA,0.992
13,GAACGTGGCT,1.01
14,GAACTACTAA,1.02
15,GAACTAGAGG,0.993
16,GAACTATCGG,0.977
17,GAACTCATTG,1
18,GAACTCCCAG,1.16
19,GAACTCGACC,1.07
20,GAACTGGAAT,0.999
21,GAACTGTAAC,1.11
22,GAACTGTCAG,0.989
23,GAAGAACTAT,0.996
24,GAAGACCAGG,0.982
25,GAAGACGTGG,1.03
26,GAAGAGATTT,0.999

row,Sequence,switch fluorescence ratio
1,GAAGAGCCCG,1.02
2,GAAGCCGTAG,0.945
3,GAAGCGAGGG,1.05
4,GAAGCTATAA,3.68
5,GAAGGACCCG,0.941
6,GAAGGAGGG,1.01
7,GAAGGATACT,1.02
8,GAAGGCACAG,1.04
9,GAAGGCCACG,1
10,GAAGGCGTTC,1.01
11,GAAGGGGACA,1.47
12,GAAGGGGGCG,1.03
13,GAAGGGTCCC,1.05
14,GAAGGTCAGC,1.02
15,GAAGGTTCTC,0.989
16,GAAGTCACAT,1.01
17,GAAGTCAGAT,1.02
18,GAAGTCAT,0.993
19,GAAGTCATTC,0.984
20,GAAGTCGCGG,0.987
21,GAAGTCGGGT,0.958
22,GAAGTCTTCA,1.04
23,GAAGTGATTC,1.08
24,GAAGTGCTGG,1.03
25,GAAGTTAACA,0.985
26,GAAGTTAATA,1.09

row,Sequence,switch fluorescence ratio
1,GAAGTTGAGG,1.05
2,GAATACCCTG,1.01
3,GAATACTAGT,1.01
4,GAATAGAATG,0.976
5,GAATAGAGAG,1.02
6,GAATATGTTG,0.974
7,GAATATTTGT,0.974
8,GAATCAATTT,0.937
9,GAATCATATA,1
10,GAATCGCTCC,1.16
11,GAATCGTGCC,0.999
12,GAATGATCCT,1.04
13,GAATGATTCC,1.03
14,GAATGCGCG,1.05
15,GAATGTAACT,1.02
16,GAATGTATGC,1.03
17,GAATGTGTGT,1.01
18,GAATGTTTAT,0.981
19,GAATTAACTA,0.973
20,GAATTACTTG,0.976
21,GAATTAGGGT,1.03
22,GAATTTAATT,0.994
23,GAATTTGCAT,0.974
